This passage reports survival results from PubChem BioAssay AID463173 (ICCB-Longwood Screening Facility, Harvard Medical School, 2010).

Screen size: about 52,000 compounds; about 1,700 (3.3%) were called active. No stated cut-off is given here; in the data, active means survival mostly below about 52% (no sharp cut-off); inactive means mostly above about 56%. The list shows a part of the results.

This test relates to Wild type. The test can be described thus: S. aureus survival, RN4220 and DeltatarO strains – OD600, teichoic acid synthesis inhibitors, primary screen (AID 463173). Particulars: S. aureus RN4220 wild type/DeltatarO growth, OD600, 18 h, stronger effect = lower value, screened at 18.75 µg/mL (by protocol).
Regarding `Oc1c(C(c2ccccc2Cl)N2CCCC2)sc2nc(-c3ccco3)nn12` (stereo unspecified), the survival is inactive: 82%.

Regarding `CCOc1ccc(N(CC(=O)NCc2ccccc2Cl)S(=O)(=O)c2c(C)[nH]c(=O)[nH]c2=O)cc1`, the survival was inactive: 81%.

As for `CC(=O)Nc1ccc(NC(=O)CSc2nc3ccccc3nc2N2CCOCC2)cc1`, the survival was inactive: 84%.

For the compound `CN1C(=O)c2ccccc2Sc2ccc(NC(=O)COc3ccc(F)cc3)cc21`, the survival was inactive: 72%.

Turning to `Fc1ccc(CN2CCc3nc(Nc4ccccc4)ncc3C2)cc1F`, the survival is inactive: 66%.

On to `COc1ccc(CCNc2ncnc3c2cnn3-c2ccc(C)cc2)cc1`, for which the survival is inactive: 71%.

As for `COc1ccc(-c2noc(CNC(=O)c3ccco3)n2)cc1`, the survival is inactive: 81%.

In the case of `O=C(NCc1ccco1)c1ccc2c(c1)N(Cc1cccc(Cl)c1)C(=O)c1ccccc1S2(=O)=O`, the survival is inactive: 64%.

As to `Cc1ccc(CNC(=O)CSc2cc(C)[nH]c(=O)n2)cc1`, the survival is inactive: 73%.

Regarding `Cn1c(SCc2ccccc2)nnc1-c1ccccc1`, the survival is inactive: 101%.

As for `Cc1nn(-c2ccccc2)c2nc(C3CC3)cc(C(=O)Nc3ccccc3F)c12`, the survival was inactive: 75%.

As for `COc1ccc(C2C(=O)N(C3CCCCCC3)CC(=O)N2Cc2ccc(C)cc2)cc1OC` (stereo unspecified), the survival was inactive: 69%.

With `Cc1ccccc1C(=O)Nc1nnc(S(=O)(=O)N2c3ccccc3CC2C)s1` (stereo unspecified), the survival is inactive: 33%.

As for `Cc1c(NS(=O)(=O)c2ccccc2)cc(C(C)C)c(O)c1S(=O)(=O)c1ccc(Cl)cc1`, the survival is inactive: 115%.

Regarding `COc1cc(C(=O)N2CCC(c3nc4ccccc4o3)CC2)cc(OC)c1OC`, the survival was inactive: 83%.

For `Cc1ccc2[nH]cc(NC(=O)NCCN(C)C)c(=O)c2c1`, the survival was inactive: 117%.

As to `CC1CCN(C(=O)CSc2nc(-c3ccccc3)no2)CC1`, the survival was inactive: 115%.

`CC(C)(C)n1nnnc1C(c1ccccn1)N1CCC(Cc2ccccc2)CC1` (stereo unspecified): the survival is inactive: 110%.

Take `COc1ccc(C(c2c(O)cc(C)n(Cc3ccco3)c2=O)N2CCCCC2)cc1OC` (stereo unspecified): the survival is inactive: 92%.

`Cc1ccc(SCC(=O)Nc2ccccc2)cc1`: the survival was inactive: 125%.

As to `CCOc1cccc(CC(=O)N2CCc3c([nH]c4ccccc34)C2c2ccc(Cl)cc2)c1OCC` (stereo unspecified), the survival is inactive: 73%.

With `c1ccc(-n2c(SCCN3CCOCC3)nnc2-c2ccncc2)cc1`, the survival is inactive: 102%.

As for `Nc1nc(CN2CCCCC2)cs1`, the survival is inactive: 119%.

With `COc1cc(Cl)c(C)cc1NC(=O)c1ccc2c(Cl)c3c(nc2c1)CCC3`, the survival is inactive: 83%.

With `CCC1CCCCN1C(=O)c1ccccc1F` (stereo unspecified), the survival was inactive: 101%.

For `Cc1ccc(OC(=O)C23CC4CC(CC(C4)C2)C3)cn1`, the survival was inactive: 122%.

For the compound `CCc1ccc(Oc2c(C(F)(F)F)oc3c(CN4CCN(C)CC4)c(O)ccc3c2=O)cc1`, the survival is inactive: 131%.

`O=C(Cn1cc(SCc2cccc(Cl)c2)c2ccccc21)N1CCCCCC1`: the survival is inactive: 85%.

For the compound `CCOc1ccccc1NC(=O)c1c(NC(=O)c2ccccc2)sc2c1CCCC2`, the survival is inactive: 74%.

As to `CCOc1ccccc1CNC(=O)c1cnc2sc(N3CCCCCC3)nn2c1=O`, the survival was inactive: 73%.

`COc1ccc(-n2ccn(CC(=O)NCCc3ccccc3)c(=O)c2=O)cc1OC`: the survival is inactive: 116%.

In the case of `O=C(NCCc1csc2nc(-c3ccc(F)cc3)nn12)c1cccc(C(F)(F)F)c1`, the survival was inactive: 85%.

For `COc1cccc(CNC(=O)Cn2ncc3c4ccccc4n(Cc4ccccc4)c3c2=O)c1`, the survival is inactive: 93%.

`COc1ccccc1CN(Cc1ccco1)c1cnc(S(C)(=O)=O)nc1C(=O)Nc1cc(C)ccc1C`: the survival was inactive: 83%.

Turning to `CCc1ccc(S(=O)(=O)NCCc2csc3nc(-c4ccccc4)nn23)s1`, the survival was inactive: 129%.

Take `CC(C)(C)c1ccc(-c2nc3cc(NC(=O)c4cccc(Br)c4)ccc3o2)cc1`: the survival was inactive: 91%.

On to `COc1cccc(C(=O)NCc2nc(-c3ccccc3)no2)c1OC`, for which the survival is inactive: 89%.

For `Cn1c(=O)c2c(ncn2CC(=O)Nc2cccc(C(F)(F)F)c2)n(C)c1=O`, the survival was inactive: 73%.

Consider `Cc1cccc(NC(=O)CCc2c(C)nc3nc(CNC(=O)c4cccc(F)c4)nn3c2C)c1`, for which the survival is inactive: 95%.

On to `CC(=O)Nn1c(C)nc2ccccc2c1=O`, for which the survival was inactive: 112%.

On to `COc1ccc(Cn2c(SCc3ccc(C(=O)NC4CCCC4)cc3)nc3cccnc32)cc1`, for which the survival was inactive: 73%.

As for `CCN(CC)C1=CC(=O)OC12CCCCC2`, the survival is inactive: 118%.

Regarding `O=C(Cn1c(=O)n(Cc2ccc3c(c2)OCO3)c(=O)c2oc3ccccc3c21)Nc1ccc(F)cc1`, the survival is inactive: 80%.

Consider `CCOC(=O)C1(C)NC(c2ccc(F)cc2)C2C(=O)N(CC)C(=O)C21` (stereo unspecified), for which the survival was inactive: 108%.

For the compound `COc1ccc(-c2noc(CSc3nnc(-c4ccncc4)n3-c3ccc(C)cc3)n2)cc1OC`, the survival is inactive: 80%.

On to `COC(=O)/C(=C\c1c[nH]c2ccccc12)NC(C)=O`, for which the survival is inactive: 102%.

For `O=C(CSc1nnc2c(n1)[nH]c1ccccc12)Nc1ccccc1`, the survival was inactive: 104%.

As to `CCn1cc(CNC(=O)c2cc(-c3ccc(C)c(C)c3)nc3ccccc23)c(C)n1`, the survival was inactive: 134%.

Take `CC1CCCCN1C(=O)Cn1c(SCC(=O)N(C)c2ccccc2)nc2ccccc21` (stereo unspecified): the survival was inactive: 53%.

As for `Cc1ccc(NC(=O)c2ccc(=O)n(CC(=O)Nc3cccc(C)c3)n2)cc1`, the survival was inactive: 71%.

Regarding `COC(=O)c1ccccc1NC(=O)c1cc2nc(-c3ccc(OC)cc3)cc(C(F)(F)F)n2n1`, the survival was inactive: 67%.

`Cc1ccc(NC(=O)c2ccc(NC(=O)N3CCSc4nc(C)cc(C)c43)cc2)c(Cl)c1`: the survival was inactive: 131%.

Consider `O=C(Cn1nc2c(cc1=O)CCCC2)Nc1ccccc1C(F)(F)F`, for which the survival was inactive: 75%.

As for `COC(=O)c1cc2c(ccn2-c2ccc(F)cc2)n1CC(=O)N1CCCCC1`, the survival is inactive: 114%.

As to `CCOc1ccccc1CNS(=O)(=O)c1ccc(-c2coc(C)n2)cc1`, the survival was inactive: 70%.

For the compound `Cc1cccc(C(c2sc3nc(-c4ccco4)nn3c2O)N2CCN(c3ccccc3)CC2)c1` (stereo unspecified), the survival is inactive: 88%.

In the case of `O=C(CSc1n[nH]c(-c2ccccc2Cl)n1)N1CCN(c2ccccc2)CC1`, the survival is inactive: 87%.

In the case of `Cc1ccc(C)c(NC(=O)c2ccc3nc(CCc4ccccc4)oc3c2)c1`, the survival is inactive: 65%.

As for `C=CCN1Cc2c(sc3c2CCCC3)N(C(=O)c2ccccc2)C1`, the survival was inactive: 114%.

Turning to `CCCc1ccc(C2Sc3ccccc3NC3=C2C(=O)c2ccccc23)cc1` (stereo unspecified), the survival was inactive: 106%.

Turning to `Cc1cc(NC(=O)c2cccs2)cc(-c2nc3cc(Cl)ccc3o2)c1O`, the survival was inactive: 87%.

With `CCOC(=O)CNS(=O)(=O)c1cc(-c2nnc(Nc3cccc(O)c3)c3ccccc23)ccc1C`, the survival was inactive: 58%.

With `CCC(=O)NCc1cc(-c2nn(C)c(=O)c3ccccc23)ccc1OC`, the survival is inactive: 68%.

As to `CCn1cc2nc(SCC(=O)Nc3ccc(C)cc3C)n(Cc3ccc(C)cc3)c(=O)c2n1`, the survival was inactive: 135%.

Regarding `COC(=O)C1CCN(C(=O)c2ccc(NC(C)=O)cc2)CC1`, the survival was inactive: 104%.

For `COc1cc(NC(=O)CCCc2nnc3n(C)c(=O)c4sccc4n23)cc(OC)c1OC`, the survival is inactive: 93%.

For `O=C(CSCc1ccc(F)cc1)NCc1ccc(F)cc1`, the survival was inactive: 87%.

Regarding `Cc1cccc(CC(=O)N2CC(=O)Nc3ccc(F)cc3C2c2ccccc2)c1` (stereo unspecified), the survival is inactive: 81%.

For `Cc1ccc(CNC(=O)CSc2c(C(C)C)cnc3c2c(=O)n(C)c(=O)n3C)cc1`, the survival was inactive: 58%.

Consider `CC(C)c1ccc2nc(SCC(=O)N3CCCC3)c(C#N)cc2c1`, for which the survival is inactive: 114%.

As to `CCC(CC)C(=O)N1CCc2cc(OC)c(OC)cc2C1COc1ccc(F)cc1` (stereo unspecified), the survival was inactive: 75%.

For `CCc1ccccc1NC(=O)Nc1ccc2snnc2c1`, the survival was inactive: 82%.

As to `CCc1ccc(NS(=O)(=O)c2ccc3[nH]c4c(c3c2)CCCCCC4)cc1`, the survival is inactive: 82%.

Take `Cc1cccc(-n2ncc(C(=O)NCc3ccc4c(c3)OCO4)c2C2CCN(C(=O)OC(C)(C)C)CC2)c1`: the survival is inactive: 77%.

For `O=C(CSc1nc(Nc2ccc(F)c(F)c2)c2ccccc2n1)c1ccc(Cl)cc1`, the survival was inactive: 78%.

In the case of `COc1ccc(-c2cccc(NS(=O)(=O)c3ccc(NC(C)=O)cc3)c2)nn1`, the survival is inactive: 82%.

`CCCCN(C)CCNC(=O)c1cc(-c2ccc(Cl)s2)nc2ccccc12`: the survival was inactive: 82%.

As to `CCc1ccc(NC(=O)CN2C(=O)CC(c3ccccc3)Sc3ccccc32)cc1` (stereo unspecified), the survival is inactive: 116%.

For the compound `CC(C)(C)OC(=O)N1CCC(c2c(C(=O)NCCN3CCOCC3)cnn2-c2ccc(F)cc2F)CC1`, the survival was active: -3%.

As to `CCOc1ccccc1Nc1nc2c(S(=O)(=O)c3ccc(C)cc3)nnn2c2ccsc12`, the survival is inactive: 87%.

With `Cc1ccc(-c2nc3scc(CCNS(=O)(=O)c4ccc(Oc5ccccc5)cc4)n3n2)cc1`, the survival was inactive: 111%.

For the compound `CCOC(=O)c1c(-c2ccccc2)csc1NC(=O)c1nc(SCC)ncc1Cl`, the survival was inactive: 97%.

`O=C(NCC1CC1)Nc1c[nH]c2ccccc2c1=O`: the survival was inactive: 107%.

For the compound `CCOc1cc(/C=C(\C#N)C(=O)Nc2ccc(OC)cc2)ccc1OCc1cc(=O)n2nc(CC)sc2n1`, the survival was inactive: 84%.

`Cc1ccc2nc(CSc3nnc(NC(=O)c4ccc(C(C)(C)C)cc4)s3)cc(=O)n2c1`: the survival was inactive: 55%.

As for `CC(=O)Nc1ccc(NC(=O)c2ncoc2-c2ccco2)cc1`, the survival was inactive: 82%.

Consider `COCCNC(=S)N1CCCN(c2nc3cc(C)ccc3cc2C#N)CC1`, for which the survival was inactive: 109%.

For the compound `CCCCCNC(=O)C1CCC(Cn2c(=O)c3sccc3n(CC)c2=O)CC1` (stereo unspecified), the survival was inactive: 22%.

As for `CCc1cccc(C)c1NC(=O)CN1C(=O)c2cccc3cccc1c23`, the survival was inactive: 66%.

Take `Cc1ccc(CN2C(=O)C3(c4ccccc42)N(c2ccc(C)c(Cl)c2)C(=O)CS3(=O)=O)cc1` (stereo unspecified): the survival is inactive: 71%.

For `COc1ccc(NC(=O)CSc2cn(CCNC(=O)c3ccc(OC)cc3)c3ccccc23)cc1`, the survival is inactive: 88%.
